What all share (assay): Primary Screen for Target Class Profiling of Small Molecule Inhibitors of Methyltransferases
Assay [1] concerns the target Glycine N-methyltransferase (Homo sapiens) (UniProt Q14749). The following applies: purified enzyme, MTase-Glo SAH luminescence; measured here: GNMT inhibition; at 40 µM; stronger effect = lower value. The method in brief:
(§1)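 Each enzyme was reacted with SAM and its substrate, with compounds tested once at 40 uM; SAH formed was read by MTase-Glo luminescence.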

Assay [2] has as its target Guanidinoacetate N-methyltransferase (Homo sapiens) (UniProt Q14353). The following applies: purified enzyme, MTase-Glo SAH luminescence; measured here: GAMT inhibition; at 40 µM; stronger effect = lower value. In outline: as §1
The target of assay [3] is Histamine N-methyltransferase (Homo sapiens) (UniProt P50135). The following applies: purified enzyme, MTase-Glo SAH luminescence; measured here: HNMT inhibition; at 40 µM; stronger effect = lower value. The method in brief:
as §1

Assay [4] has as its target Nicotinamide N-methyltransferase (Homo sapiens) (UniProt P40261). The following applies: purified enzyme, MTase-Glo SAH luminescence; measured here: NNMT inhibition; at 40 µM; stronger effect = lower value. In outline:
as §1

Assay [5] concerns the target Phenylethanolamine N-methyltransferase (Homo sapiens) (UniProt P11086). The following applies: purified enzyme, MTase-Glo SAH luminescence; measured here: PNMT inhibition; at 40 µM; stronger effect = lower value. The method in brief: as §1

Several values for one entry are separate records, joined by “and”; a condition that tells them apart may be missing. Equal entries are not always repeated. The list shows a part of the results. The main result of the screen is listed elsewhere. These columns were measured beside it and carry no call.
On the % scale 0 is the no-effect control and ±100 the full control effect.

Turning to `CCOc1ccc(CNC(=O)Cn2ccc3cc(S(=O)(=O)N4CCCCC4)ccc32)cc1`, the activity change, negative = inhibition is 0.51% in assay [1]; 0% in assay [2]; -1.76% in assay [3]; -4.88% in assay [4]; -3.42% in assay [5].

With `Cn1nc(-c2ccc(C(F)(F)F)cc2)nc2c(=O)n(C)c(=O)nc1-2`, the activity change, negative = inhibition is -94.3% in assay [1]; -97.1% in assay [2]; -86.4% in assay [3]; -79.1% in assay [4]; -26.6% in assay [5].

Regarding `Cc1cccc(CN2CC(=O)N(Cc3ccc(F)cc3)c3ccccc3S2(=O)=O)c1`, the activity change, negative = inhibition in assay [1] is 8.33%; in assay [2] it was -0.495%; in assay [3], 15.6%; in assay [4], -8.47%; in assay [5] it was 0.597%.

For the compound `Nc1nc2c(s1)CCN(Cc1ccc(Cl)cc1)CC2`, the activity change, negative = inhibition was 3.9% in assay [1]; 3.86% in assay [2]; -26% in assay [3]; -20.1% in assay [4]; -8.77% in assay [5].

For `COc1ccc(Cn2c(=O)c3ccccc3n3c(-c4ccc(OC)c(OC)c4)nnc23)cc1`, the activity change, negative = inhibition was -2.37% in assay [1]; 0% in assay [2]; 2.77% in assay [3]; 4.84% in assay [4]; -0.682% in assay [5].

Consider `O=C(c1cccnc1OC1CCN(Cc2ccccn2)C1)N1CCCCC1` (stereo not given), for which the activity change, negative = inhibition in assay [1] was -8.68%; in assay [2] it was -6.69%; in assay [3], -6.17%; in assay [4], -9.72%; in assay [5], 1.61%.

On to `CCC(C)NC(=O)c1ccc2c(=O)n(C)c3nnc(SCc4cccc(OC)c4)n3c2c1` (stereo not given), for which the activity change, negative = inhibition in assay [1] was determined as 6.69%; in assay [2] it was 0%; in assay [3], 4.14%; in assay [4], 4.13%; in assay [5], 5.49%.

As to `Nc1ccccc1NC(=O)c1ccc(CNc2nccc(-c3cccnc3)n2)cc1`, the activity change, negative = inhibition in assay [1] is -15.8%; in assay [2], -6.04%; in assay [3], -0.142%; in assay [4], -20%; in assay [5], -13.5%.

In the case of `COc1cc(-c2cc(-c3ccc(N4CCNCC4)cc3)cnc2C)cc(OC)c1OC`, the activity change, negative = inhibition in assay [1] is -21%; in assay [2], -5.96%; in assay [3] it was 0.768%; in assay [4] it was -30.3%; in assay [5], -11%.

As to `CCn1nc(C)c(-c2cc(C(=O)NCCc3noc(COC)n3)no2)c1C`, the activity change, negative = inhibition in assay [1] is -3.36%; in assay [2], -4.07%; in assay [3], -1.57%; in assay [4] it was -6.04%; in assay [5], -5.15%.

For the compound `COc1ccc(CCN2C(=O)c3cc4sccc4n3CC2(C)C(=O)NC2CCCC2)cc1OC` (stereo not given), the activity change, negative = inhibition in assay [1] is -0.219%; in assay [2], -4.52%; in assay [3], -2.69%; in assay [4], -21.2%; in assay [5] it was -3.51%.

As for `COC(=O)[C@H]1CCCN1C(=O)[C@@H]1C[C@@H](NS(=O)(=O)c2cccs2)CCN1C(=O)COCC(=O)O`, the activity change, negative = inhibition in assay [1] is -3.6%; in assay [2] it was -2.47%; in assay [3], -1.13%; in assay [4], -4.82%; in assay [5] it was 2.2%.

Consider `CC1(C(=O)NC2CCCCCC2)Cn2c(c(-n3cccc3)c3cc(F)ccc32)C(=O)N1Cc1cccs1` (stereo not given), for which the activity change, negative = inhibition in assay [1] was -4.76%; in assay [2] it was 3.73%; in assay [3] it was -2.5%; in assay [4], -4.34%; in assay [5] it was -3.84%.

As for `Cc1ccc(S(=O)(=O)/C=C/C#N)cc1`, the activity change, negative = inhibition in assay [1] is -68.6%; in assay [2] it was 0.04% and 6.08%; in assay [3] it was 0.378%; in assay [4], -8.36% and -0.11%; in assay [5] it was 7.66% and 8.6%.

On to `COc1ccc(CNC(=O)O[C@H]2COCCN(c3nc4ccccc4s3)C2)cc1`, for which the activity change, negative = inhibition in assay [1] is -10.9%; in assay [2] it was -5.87%; in assay [3], -10.5%; in assay [4], -11.2%; in assay [5] it was -3.24%.

As to `CC(C)=CCCC1(C)C2CCC1(C)C(O)C2` (stereo not given), the activity change, negative = inhibition in assay [1] is -13.8%; in assay [2], -6.66%; in assay [3], -5.21%; in assay [4] it was -26.7%; in assay [5], -2.53%.

For `NC(N)=[N+]1CCc2ccccc2C1`, the activity change, negative = inhibition in assay [1] was 7.03%; in assay [2], 3.4%; in assay [3] it was 10.9%; in assay [4] it was -6.7%; in assay [5] it was 1.59%.

For `Cc1ccncc1C(=O)N1CCCn2ccnc2C1c1ccccc1` (stereo not given), the activity change, negative = inhibition in assay [1] was -3.98%; in assay [2] it was -6.47%; in assay [3] it was -1.12%; in assay [4], -5.49%; in assay [5], -19.1%.

`Cc1cccc(N2C(=O)c3cc(C4CC4)nn3CC2(C)C(=O)NC2CCCCCC2)c1C` (stereo not given): the activity change, negative = inhibition in assay [1] is -1.09%; in assay [2], 4.67%; in assay [3] it was -0.56%; in assay [4], 5.7%; in assay [5], -0.283%.

In the case of `O=C(O)/C=C/c1ccc(O)c(O[C@@H]2O[C@H](CO)[C@@H](O)[C@H](O)[C@H]2O)c1`, the activity change, negative = inhibition in assay [1] was 0%; in assay [2] it was 7.73%; in assay [3], 7.38%; in assay [4], -2.86%; in assay [5], 7.08%.

Take `Cc1ccc(Cn2c(=O)c3ccc(C(=O)NCC(C)C)cc3n3c(=O)n(CC(=O)NC(C)(C)C)nc23)cc1`: the activity change, negative = inhibition in assay [1] is 2.11%; in assay [2], 5.65%; in assay [3] it was 2.7%; in assay [4], 1.38%; in assay [5], -1.52%.

Turning to `CCOc1ccccc1CNC(=O)c1cc2n(n1)CC(C)(C(=O)NC1CCCCC1)N(C)C2=O` (stereo not given), the activity change, negative = inhibition in assay [1] is 4.95%; in assay [2] it was -2.95%; in assay [3], 0.532%; in assay [4], 1.35%; in assay [5], -1.77%.

`COc1ccc(CCNC(=O)CCc2nnc3n(Cc4ccc(C)cc4)c(=O)c4ccccc4n23)cc1OC`: the activity change, negative = inhibition in assay [1] was -4.59%; in assay [2], 1.37%; in assay [3] it was 9.51%; in assay [4], 12.5%; in assay [5], 3.41%.

Take `CCOC(=O)c1cc2n(n1)CC(C)(C(=O)NC1CCC(C)CC1)N(Cc1ccc(OCC)cc1)C2=O` (stereo not given): the activity change, negative = inhibition in assay [1] is 1.58%; in assay [2], 0%; in assay [3], 4.72%; in assay [4] it was -8.41%; in assay [5] it was 1.18%.

In the case of `CCC(C(=O)NCc1ccccc1F)n1ccc2cc(S(=O)(=O)N3CCCCC3)ccc21` (stereo not given), the activity change, negative = inhibition in assay [1] is 2.88%; in assay [2], 5.44%; in assay [3], 3.16%; in assay [4], -1.39%; in assay [5], 0.644%.

In the case of `Cc1cc(C)n(C2CCN(c3nccc(-c4ccccn4)n3)C2)n1` (stereo not given), the activity change, negative = inhibition in assay [1] was -9.68%; in assay [2] it was -11.2%; in assay [3], -6.07%; in assay [4], -18.7%; in assay [5], -12.9%.

Take `CCOC(=O)c1cc2n(n1)CC(C)(C(=O)NC1CCC(C)CC1)N(c1cccc(C)c1C)C2=O` (stereo not given): the activity change, negative = inhibition was 7.88% in assay [1]; 1.17% in assay [2]; 8.75% in assay [3]; 4.46% in assay [4]; 5.44% in assay [5].

On to `CCCc1c(OCCCOc2ccc(OCC(=O)O)cc2)ccc(C(C)=O)c1O`, for which the activity change, negative = inhibition in assay [1] is -29.5%; in assay [2] it was 4.29%; in assay [3] it was -6.18%; in assay [4] it was -14%; in assay [5] it was 6.77%.

For `Cc1ccc(Cn2c(=O)c3ccccc3n3c(CCC(=O)NCc4ccccc4Cl)nnc23)cc1`, the activity change, negative = inhibition was -1.86% in assay [1]; 1.24% in assay [2]; 7.71% in assay [3]; -8.04% in assay [4]; 0.541% in assay [5].

`CCCn1c(=O)c2ccc(C(=O)NC(C)CC)cc2n2c(=O)n(Cc3cccc(OC)c3)nc12` (stereo not given): the activity change, negative = inhibition in assay [1] was 3%; in assay [2], 0%; in assay [3], 5.62%; in assay [4] it was -2.21%; in assay [5], 3.24%.

On to `O=C(Nc1ccc(Cl)nc1)c1cccn2cncc12`, for which the activity change, negative = inhibition in assay [1] was -16.2%; in assay [2], -5.65%; in assay [3] it was -6.4%; in assay [4], -12.7%; in assay [5] it was 5.54%.

(Values after PubChem BioAssay AID1745853 (National Center for Advancing Translational Sciences (NCATS), 2022).)
